Measurements taken from PubChem BioAssay (NCATS).
Values joined by “and” are separate entries in the source; they are usually repeats but may differ in a detail not shown here. Identical values can stand only once. Inconclusive means that the source gave no clear call. Such entries were picked first, then a sample of the others. Where the call is inconclusive, the potency comes from a doubtful curve fit. Active and inactive are the calls of the source. Calls follow the shape of the dose curve; as a rule, active = well fitted inhibition curve with a large enough effect; inconclusive = small, poorly fitted or top-dose-only effect; inactive = no such curve, though single readings can be large or run the other way.

Assay: Primary qHTS for inhibitors of La Crosse Virus (LACV) - induced cell death in SH-SY5Y cells (AID 1508616);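 as to activity change: top concentration of the series differs between compounds; 0% = infected DMSO wells and 100% = uninfected DMSO wells; higher means more rescue of cells from virus-induced death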
Conditions: SH-SY5Y LACV cytopathicity rescue, ATP luminescence, 6 d; series mostly up to 4.29 µM; activity change: at the top concentration
In short: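 SH-SY5Y, 6000 cells/well; cpd via pin tool in DMSO; LACV 0.01 MOI; 6 d 37C 5% CO2; ATPLite, 5 min RT; luminescence normalized to ±virus DMSO controls.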
Potency is read from the fitted curve at half-maximal effect; tags tell the direction and shape of the fitted curve.

SMILES	activity change	Potency
CCN(CC)c1ccc(C(=C2C=CC(=[N+](CC)CC)C=C2)c2cc(S(=O)(=O)O)ccc2S(=O)(=O)[O-])cc1	inactive: -16.7%	–
CCN(CC)C(=S)SSC(=S)N(CC)CC	–	inconclusive: 100 nM [inhibitor, full curve, poor fit] and inconclusive: 355 nM [inhibitor, full curve, poor fit]
FC(F)(F)C(F)(F)C(F)(F)C(F)(F)C(F)(F)C(F)(F)C(F)(F)C(F)(F)Br	inactive: 8.19%	–
Nc1nc(Cl)nc2c1ncn2[C@@H]1O[C@H](COP(=O)(O)OP(=O)(O)OP(=O)(O)O)[C@@H](O)[C@H]1O	–	inconclusive: 1.26 µM [inhibitor, partial curve, poor fit]
Nc1ccccc1N	–	inconclusive: 1.41 µM [inhibitor, partial curve]
O[Si](CCCN1CCCCC1)(c1ccc(F)cc1)C1CCCCC1 (stereo not drawn)	–	inconclusive: 2 µM [inhibitor, partial curve, poor fit]
Oc1ccc(O)cc1	–	inconclusive: 5.01 µM [inhibitor, partial curve, poor fit]
CCCC(=O)OC[C@@H](OC(=O)CCC)[C@@H](OC(=O)CCC)[C@H](Cn1c2nc(=O)[nH]c(=O)c-2nc2cc(C)c(C)cc21)OC(=O)CCC	–	inconclusive: 1 µM [inhibitor, partial curve, poor fit]
